The supplement of paper PMC4166925
± gives the standard deviation of the averaged measurements. The full ranking holds about 33,000 sequences; the median of “E-score (dimensionless, -0.5 to 0.5)” is about -0.046, and the highest 2% start at about 0.36. The list shows a part of the results.

What follows are sequences tested on T1, SpTbr T-box DNA-binding domain (GST fusion) (assay: PBM E-score of 8-mer (E-score (dimensionless, -0.5 to 0.5)); Tbr is Tbrain of the sea star Patiria miniata (Pm) or the sea urchin Strongylocentrotus purpuratus (Sp); higher = stronger binding preference; most listed sequences are background and not binding sites). Conditions: the construct has about 5 more residues each side.
T1 sequence: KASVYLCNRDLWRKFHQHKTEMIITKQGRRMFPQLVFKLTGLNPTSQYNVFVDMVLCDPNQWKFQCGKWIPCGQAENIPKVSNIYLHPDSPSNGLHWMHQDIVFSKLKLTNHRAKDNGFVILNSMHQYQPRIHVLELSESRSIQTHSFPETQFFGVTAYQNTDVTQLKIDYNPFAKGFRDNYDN
Description: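 Universal protein-binding microarray (Agilent AMADID 016060, 60-bp probes with a 35-bp variable region) incubated with 200 nM GST-fused Strongylocentrotus purpuratus Tbr T-box DNA-binding domain (residues 362-554) in PBS pH 7.5. Scored for every ungapped 8-mer (given with its reverse complement) as E-score (range -0.5 to 0.5; >0.45 counts as bound) and Z-score of median probe intensity. Two replicate arrays (datasets 1 and 2).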
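Further: protein at 200 nM in PBS on universal double-stranded arrays.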

Question: With AATTACTC as the sequence, how does the “PBM E-score of 8-mer” value read?
Answer: 0.0848 ± 0.054

Question: With ACTGTCAG as the sequence, how does the “PBM E-score of 8-mer” value read?
Answer: 0.098 ± 0.038

Question: CGTTGGCA was tested. Which “PBM E-score of 8-mer” value did it give?
Answer: 0.297 ± 0.013

Question: AACATCGT was tested. Which “PBM E-score of 8-mer” value did it give?
Answer: -0.0949 ± 0.034

Question: With GACCTCTC as the sequence, how does the “PBM E-score of 8-mer” value read?
Answer: -0.153 ± 0.016

Question: CTCGGAAG was tested. Which “PBM E-score of 8-mer” value did it give?
Answer: -0.144 ± 0.0097

Question: With AACTACCG as the sequence, how does the “PBM E-score of 8-mer” value read?
Answer: -0.143 ± 0.049

Question: CTAGAGAC was tested. Which “PBM E-score of 8-mer” value did it give?
Answer: -0.0218 ± 0.03

Question: With GGGGTTGA as the sequence, how does the “PBM E-score of 8-mer” value read?
Answer: -0.0351 ± 0.11

Question: With GATAAACC as the sequence, how does the “PBM E-score of 8-mer” value read?
Answer: -0.0548 ± 0.058

Question: Which “PBM E-score of 8-mer” value does the source give for CGGGTCGA here?
Answer: 0.00773 ± 0.0096

Question: ACATGTGC was tested. Which “PBM E-score of 8-mer” value did it give?
Answer: 0.142 ± 0.065

Question: How did the “PBM E-score of 8-mer” value turn out when ACGGATTG was run?
Answer: 0.0492 ± 0.024

Question: With GATGCTGC as the sequence, how does the “PBM E-score of 8-mer” value read?
Answer: -0.207 ± 0.037

Question: How did the “PBM E-score of 8-mer” value turn out when AAAGGGTG was run?
Answer: 0.252 ± 0.024

Question: CCTACCGA was tested. Which “PBM E-score of 8-mer” value did it give?
Answer: -0.116 ± 0.11

Question: AAGGGCAC was tested. Which “PBM E-score of 8-mer” value did it give?
Answer: 0.00111 ± 0.074

Question: GCATTGCA was tested. Which “PBM E-score of 8-mer” value did it give?
Answer: -0.0979 ± 0.0092

Question: CGGAGTCC was tested. Which “PBM E-score of 8-mer” value did it give?
Answer: -0.199 ± 0.05

Question: Which “PBM E-score of 8-mer” value does the source give for CGCGGCTA here?
Answer: 0.111 ± 0.012

Question: With ACTCATAA as the sequence, how does the “PBM E-score of 8-mer” value read?
Answer: -0.0942 ± 0.0043

Question: How did the “PBM E-score of 8-mer” value turn out when CTCTAAAG was run?
Answer: -0.232 ± 0.018

Question: With AGCTCATG as the sequence, how does the “PBM E-score of 8-mer” value read?
Answer: -0.0522 ± 0.014

Question: How did the “PBM E-score of 8-mer” value turn out when ACGCAACC was run?
Answer: -0.0406 ± 0.1

Question: Which “PBM E-score of 8-mer” value does the source give for CTGACGCC here?
Answer: 0.288 ± 0.031

Question: For AAAGGTAG, which “PBM E-score of 8-mer” value is on record?
Answer: -0.11 ± 0.06

Question: For CTGCCCCC, which “PBM E-score of 8-mer” value is on record?
Answer: -0.332 ± 0.016

Question: With ACCACCTA as the sequence, how does the “PBM E-score of 8-mer” value read?
Answer: 0.109 ± 0.065

Question: CACTGAAC was tested. Which “PBM E-score of 8-mer” value did it give?
Answer: 0.0134 ± 0.035

Question: Which “PBM E-score of 8-mer” value does the source give for ACGCGGTC here?
Answer: 0.103 ± 0.065

Question: Which “PBM E-score of 8-mer” value does the source give for ATCCCTAG here?
Answer: -0.075 ± 0.038

Question: Which “PBM E-score of 8-mer” value does the source give for GCGATGGA here?
Answer: 0.0533 ± 0.048

Question: Which “PBM E-score of 8-mer” value does the source give for AGTATATA here?
Answer: -0.136 ± 0.042

Question: How did the “PBM E-score of 8-mer” value turn out when CGCCCCAC was run?
Answer: 0.00751 ± 0.0027

Question: For AGGACTCC, which “PBM E-score of 8-mer” value is on record?
Answer: -0.29 ± 0.025

Question: With AGCTTGCC as the sequence, how does the “PBM E-score of 8-mer” value read?
Answer: 0.00656 ± 0.071

Question: For AACGAGCC, which “PBM E-score of 8-mer” value is on record?
Answer: -0.277 ± 0.035

Question: For CCACTAGA, which “PBM E-score of 8-mer” value is on record?
Answer: -0.201 ± 0.048

Question: How did the “PBM E-score of 8-mer” value turn out when CCCACGAG was run?
Answer: 0.0819 ± 0.033

Question: ACGTGGAG was tested. Which “PBM E-score of 8-mer” value did it give?
Answer: -0.121 ± 0.018

Question: AGACTGTC was tested. Which “PBM E-score of 8-mer” value did it give?
Answer: -0.0979 ± 0.023

Question: How did the “PBM E-score of 8-mer” value turn out when CCGGCTAC was run?
Answer: -0.103 ± 0.0069

Question: For ATGCCCTA, which “PBM E-score of 8-mer” value is on record?
Answer: -0.2895 ± 0.00057

Question: For CCTCTTCG, which “PBM E-score of 8-mer” value is on record?
Answer: 0.199 ± 0.035

Question: How did the “PBM E-score of 8-mer” value turn out when CTTGCCTC was run?
Answer: -0.128 ± 0.041

Question: CCAAATAG was tested. Which “PBM E-score of 8-mer” value did it give?
Answer: -0.1389 ± 0.00028

Question: CATAAATA was tested. Which “PBM E-score of 8-mer” value did it give?
Answer: -0.141 ± 0.046

Question: Which “PBM E-score of 8-mer” value does the source give for CGGTGTAC here?
Answer: -0.0701 ± 0.034

Question: With CTGAAAAC as the sequence, how does the “PBM E-score of 8-mer” value read?
Answer: -0.0582 ± 0.057

Question: For ATACTGAC, which “PBM E-score of 8-mer” value is on record?
Answer: -0.142 ± 0.033

Question: TCGAACGA was tested. Which “PBM E-score of 8-mer” value did it give?
Answer: -0.00886 ± 0.02

Question: Which “PBM E-score of 8-mer” value does the source give for GAGGTATC here?
Answer: -0.125 ± 0.023

Question: Which “PBM E-score of 8-mer” value does the source give for ACCCATCC here?
Answer: -0.232 ± 0.027

Question: GAGCAATA was tested. Which “PBM E-score of 8-mer” value did it give?
Answer: -0.201 ± 0.072

Question: Which “PBM E-score of 8-mer” value does the source give for AGCACTTC here?
Answer: 0.3006 ± 0.0019

Question: With AAGTGGGG as the sequence, how does the “PBM E-score of 8-mer” value read?
Answer: 0.177 ± 0.0055

Question: How did the “PBM E-score of 8-mer” value turn out when CATTAGTA was run?
Answer: -0.258 ± 0.017

Question: TCGATAGA was tested. Which “PBM E-score of 8-mer” value did it give?
Answer: -0.00357 ± 0.049

Question: With TCGTTAAA as the sequence, how does the “PBM E-score of 8-mer” value read?
Answer: -0.0516 ± 0.063

Question: For CACATCTC, which “PBM E-score of 8-mer” value is on record?
Answer: 0.149 ± 0.055

Question: With TCATCAAA as the sequence, how does the “PBM E-score of 8-mer” value read?
Answer: -0.0744 ± 0.057

Question: CCTCCAAG was tested. Which “PBM E-score of 8-mer” value did it give?
Answer: -0.00379 ± 0.04

Question: How did the “PBM E-score of 8-mer” value turn out when ACCGTTAT was run?
Answer: 0.118 ± 0.081

Question: With ACTCATCA as the sequence, how does the “PBM E-score of 8-mer” value read?
Answer: -0.00884 ± 0.065

Question: Which “PBM E-score of 8-mer” value does the source give for AGGCACCA here?
Answer: -0.15 ± 0.085

Question: How did the “PBM E-score of 8-mer” value turn out when AATCGATA was run?
Answer: 0.125 ± 0.0065

Question: How did the “PBM E-score of 8-mer” value turn out when AGAGCCCG was run?
Answer: -0.173 ± 0.016

Question: Which “PBM E-score of 8-mer” value does the source give for ATTAACAA here?
Answer: 0.14 ± 0.023

Question: For GAACACCA, which “PBM E-score of 8-mer” value is on record?
Answer: 0.104 ± 0.014

Question: GAATGACC was tested. Which “PBM E-score of 8-mer” value did it give?
Answer: -0.0328 ± 0.00067

Question: ACGCCTAC was tested. Which “PBM E-score of 8-mer” value did it give?
Answer: 0.28 ± 0.014

Question: For AATAGTTA, which “PBM E-score of 8-mer” value is on record?
Answer: -0.0269 ± 0.049

Question: How did the “PBM E-score of 8-mer” value turn out when CCTTCCGC was run?
Answer: 0.168 ± 0.062

Question: How did the “PBM E-score of 8-mer” value turn out when GAGGATCC was run?
Answer: -0.059 ± 0.051

Question: How did the “PBM E-score of 8-mer” value turn out when GTCTCGTA was run?
Answer: -0.27 ± 0.0013

Question: Which “PBM E-score of 8-mer” value does the source give for ACACATGC here?
Answer: 0.289 ± 0.0014

Question: With ATCACCTA as the sequence, how does the “PBM E-score of 8-mer” value read?
Answer: 0.321 ± 0.065

Question: With TAAACAGA as the sequence, how does the “PBM E-score of 8-mer” value read?
Answer: 0.107 ± 0.026

Question: How did the “PBM E-score of 8-mer” value turn out when CTCAAGCA was run?
Answer: -0.201 ± 0.0083

Question: For AATCATGC, which “PBM E-score of 8-mer” value is on record?
Answer: -0.113 ± 0.018

Question: With CATTCTGC as the sequence, how does the “PBM E-score of 8-mer” value read?
Answer: 0.0731 ± 0.02

Question: Which “PBM E-score of 8-mer” value does the source give for AAGTGGAG here?
Answer: -0.0833 ± 0.13

Question: Which “PBM E-score of 8-mer” value does the source give for CACGACGA here?
Answer: -0.048 ± 0.056

Question: For ATCCGTTC, which “PBM E-score of 8-mer” value is on record?
Answer: -0.14 ± 0.0066

Question: For AATACAAT, which “PBM E-score of 8-mer” value is on record?
Answer: -0.264 ± 0.023

Question: AACGGTGA was tested. Which “PBM E-score of 8-mer” value did it give?
Answer: 0.152 ± 0.039
